This note sets out measurements from PubChem BioAssay AID1645882 (National Center for Advancing Translational Sciences (NCATS), 2021).

The structures appear in SMILES notation. Screen size: about 16,000 compounds; about 120 (0.75%) were called active. About 4% were inconclusive and are not listed. Calls come from the whole dose curve; as a rule, active = well fitted inhibition curve with a large enough effect; inconclusive = small, poorly fitted or top-dose-only effect; inactive = no such curve, though single readings can be large or run the other way. This is one part of the list.

UniProt O95398, sequence (O95398 whole entry, looked up): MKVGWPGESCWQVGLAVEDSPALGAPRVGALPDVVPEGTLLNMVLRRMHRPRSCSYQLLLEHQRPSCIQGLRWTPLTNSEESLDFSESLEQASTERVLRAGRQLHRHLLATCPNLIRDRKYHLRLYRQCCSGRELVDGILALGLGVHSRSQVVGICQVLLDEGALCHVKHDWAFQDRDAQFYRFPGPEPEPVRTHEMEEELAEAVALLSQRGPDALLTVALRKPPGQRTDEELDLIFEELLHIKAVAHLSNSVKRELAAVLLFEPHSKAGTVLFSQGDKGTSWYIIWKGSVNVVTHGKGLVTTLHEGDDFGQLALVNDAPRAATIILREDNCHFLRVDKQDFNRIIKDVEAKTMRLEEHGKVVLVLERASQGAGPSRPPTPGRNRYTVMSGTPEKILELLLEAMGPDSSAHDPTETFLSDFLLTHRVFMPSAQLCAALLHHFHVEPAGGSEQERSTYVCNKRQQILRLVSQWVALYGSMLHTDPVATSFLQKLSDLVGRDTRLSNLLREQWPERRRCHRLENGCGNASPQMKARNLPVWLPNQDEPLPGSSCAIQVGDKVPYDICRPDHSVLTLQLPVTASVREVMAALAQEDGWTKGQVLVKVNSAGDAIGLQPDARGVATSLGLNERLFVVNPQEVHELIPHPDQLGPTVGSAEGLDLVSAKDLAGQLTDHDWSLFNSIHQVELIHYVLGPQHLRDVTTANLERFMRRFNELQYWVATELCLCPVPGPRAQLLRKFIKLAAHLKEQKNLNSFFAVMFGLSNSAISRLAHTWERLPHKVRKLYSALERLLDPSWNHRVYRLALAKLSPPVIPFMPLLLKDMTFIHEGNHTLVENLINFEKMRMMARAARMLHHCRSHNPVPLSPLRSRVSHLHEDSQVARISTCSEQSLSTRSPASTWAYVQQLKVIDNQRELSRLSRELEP

For the test, the target named is Rap guanine nucleotide exchange factor 3 (Homo sapiens) (UniProt O95398). The test is described as follows: Validation qHTS for antagonist of cAMP-regulated guanine nucleotide exchange factor 3 (EPAC1).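 Note: plate controls were DMSO for no effect and ATA control for full effect; nearly all actives have a fitted effect of over 75% in size.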 The note with it: EPAC1 Rap1B-BODIPY-GDP exchange, fluorescence; series mostly up to 150 µM; activity change, negative = inhibition: at the top concentration. In short, it runs like this:
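Nucleotide exchange followed as fluorescence loss when BODIPY-GDP leaves Rap1B (480 nm excitation, 540 nm emission), read at 5 min intervals over 30 min. Reaction: 100 nM EPAC1, 250 nM RAP1B-BODIPY-GDP, 50 uM GDP; ATA and DMSO define normalization.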
In general terms: In qHTS, concentration-response curves come from the screen itself.
Take `COc1ccc(-n2c(=O)c(-c3cccc(F)c3)nc3cncnc32)cc1`: the “activity change, negative = inhibition” value is inactive: -0.584%.
The same measure for `COc1ccc(C(=O)N2CCC3(CCCN(Cc4ccccc4OC)C3)CC2)cc1`: inactive: 23.4%.
The same measure for `Clc1ccccc1-c1nccc(NCc2ccccc2)n1`: inactive: -4.61%.
The same measure for `C=C1C(=O)OC2C[C@@]3(C)CCCC(C)C3=CC12` (stereo not given in full): inactive: -9.33%; for `CC(C)=CCN1CCC2(CCc3ccccc32)CC1`: inactive: 25.5%.
With `COc1ccccc1-c1ccnc(-n2ncc(C(=O)NCCc3ccccn3)c2C)n1`, the “activity change, negative = inhibition” value is inactive: -14.4%.
The same measure for `FC(F)(F)c1ccccc1-c1ccc2ncnc(NCc3cccnc3)c2c1`: inactive: -9.31%.
With `COc1ccccc1CCn1c(=O)c(-c2cccs2)nc2cncnc21`, the “activity change, negative = inhibition” value was inactive: 6.28%.
Next, `OB(O)O`: inactive: 2.99%.
The same measure for `COCc1ccc(CN2CCOc3c(cc(-c4cc(C)c5cccc(OC)c5n4)cc3OC)C2)o1`: inactive: 13.2%; for `CCN(CC)CCC(=O)N1c2ccccc2Sc2ccc(C(F)(F)F)cc21`: inactive: 1.25%.
The same measure for `COC(=O)N1CCC2(CCCN(Cc3cc(C(F)(F)F)cc(C(F)(F)F)c3)C2)CC1`: inactive: 13.6%.
`O=C(NCC1Cc2cccc(-c3cnccn3)c2O1)C1COc2ccccc2O1` (stereo not given): the “activity change, negative = inhibition” value was inactive: 11%.
Next, `CNc1cc(-c2ccccc2CN(C)C)ncn1`: inactive: 8.99%.
Consider `O=C1CCC(c2ccc(-n3ccnc3)cc2)=NN1`, for which the activity change, negative = inhibition result is “inactive”.
Next, `CS(=O)(=O)Nc1cc(C(=O)N2CCNC(=O)C2)c2c(c1)ncn2CCc1ccccc1`: inactive: 13%; `COc1ccc(-c2nc3cnc(Nc4cccc(OC)c4)nc3n(C3CC3)c2=O)cc1`: inactive: -13%.
Next, `COc1ccccc1CCc1nc2ccccc2n1C1CCN(C(=O)c2cn3ccsc3n2)CC1`: inactive: 4.35%; `CC(C)c1cnc(NC(=O)Cc2ccccc2)s1`: inactive: 3.36%; `COc1ccc(NC(=O)N2CCCC3(CCN(C(=O)c4cccn4C)CC3)C2)cc1`: inactive: 6.37%.
In the case of `CC(C)n1c(/C=C/[C@@H](O)C[C@@H](O)CC(=O)O)c(-c2ccc(F)cc2)c2ccccc21`, the “activity change, negative = inhibition” value was inactive: 12.9%.
Next, `FC(F)(F)c1ccccc1-c1ccc2ncnc(NCCN3CCOCC3)c2c1`: inactive: 20.8%; `COC1=C(OC)C(=O)C(CCCCCCCCCCO)=C(C)C1=O`: inactive: 11.8%; `Cn1c(=O)c(-c2ccccc2)c(O)c2ccccc21`: inactive: 24.5%.
Next, `CCNC(=O)N1CCN(CCCC(c2ccc(F)cc2)c2ccc(F)cc2)CC1`: “inactive”; `Fc1ccc(C(OCCCc2cnc[nH]2)c2ccc(F)cc2)cc1`: inactive: 1.39% [at 75.8 µM].
The same measure for `CCOC(=O)C[C@H]1c2ccc(C(F)(F)F)cc2S(=O)(=O)N1C1CCCC1`: inactive: -7.38%; for `O=c1c(-c2ccc(F)c(F)c2)nc2cncnc2n1Cc1ccccc1`: inactive: -6.98%; for `O=c1[nH]c(Cl)nc2c1ncn2C1OC(CO)C(O)C1O` (stereo not given): inactive: 12.3%.
On to `CCC(CCC(C)C1CCC2C3CC=C4CC(OC(C)=O)CC[C@@]4(C)C3CC[C@@]12C)C(C)C` (stereo not given in full), for which the “activity change, negative = inhibition” value was inactive: 11.8%.
For `COc1ccc(-c2nc3cnc(Oc4ccccc4)nc3n(Cc3cccs3)c2=O)cc1`, the “activity change, negative = inhibition” value was inactive: 3.31%.
Turning to `CCCCNc1ccc(C(=O)OCCN(CC)CC)cc1`, the “activity change, negative = inhibition” value was inactive: 23.2%.
The same measure for `COc1cc2c(cc1OC)-c1cc(=Nc3c(C)cc(C)cc3C)n(C)c(=O)n1CC2`: “inactive”.
Next, `COc1ccc(Oc2ncc3nc(-c4cc(F)cc(F)c4)c(=O)n(CCC#N)c3n2)cc1`: inactive: -0.453%.
Next, `N#CCCn1c(=O)c(-c2cccs2)nc2cnc(N3CCOCC3)nc21`: inactive: 43%; `CC1=C(C(=O)O)N2C(=O)C(NC(=O)C(N)C3=CCC=CC3)C2SC1` (stereo not given): inactive: 17.8%.
Consider `CCOC(=O)[C@H](CCc1ccccc1)N[C@H]1CCc2ccccc2N(CC(=O)O)C1=O`, for which the “activity change, negative = inhibition” value is inactive: 13.7%.
The same measure for `COC(=O)/C=C\c1cc(O)ccc1O`: inactive: 6.46%; for `CC1=CC(=O)C2C(C)(C)CCC[C@@]2(C)[C@@]1(O)CCc1ccoc1` (stereo not given in full): inactive: -0.111%; for `CCCCCCCCCCCC[n+]1ccc2ccccc2c1`: inactive: 11.4%.
Regarding `CC(C)(C)NC[C@H](O)COc1nsnc1N1CCOCC1`, the activity change, negative = inhibition entry is “inactive”.
With `C[C@]12CCC(=O)C=C1CC[C@@H]1[C@@H]2[C@@H](O)C[C@@]2(C)[C@H]1CC[C@]2(O)C(=O)COC(=O)CCC(=O)O`, the “activity change, negative = inhibition” value is inactive: 26.3%.
Next, `CN(C)C(=O)c1ccc(-c2ccc3ncnc(NC4CCNCC4)c3c2)cc1`: inactive: 4.76%; `Cc1nc2cnc(Nc3ccccc3)nc2n(Cc2ccc(F)cc2)c1=O`: inactive: -9.88%; `COc1cc2c(cc1OC)/C(=C/c1ccc(N(C)C)cc1)C=C2`: inactive: 5.15%.
The same measure for `c1ccc2c(c1)CCC[C@H]2Nc1nc2ccccc2[nH]1`: inactive: 4.65% [at 75.8 µM]; for `NCCCC[C@H](N[C@@H](CCc1ccccc1)C(=O)O)C(=O)N1CCC[C@H]1C(=O)O`: inactive: -1.21% [at 75.8 µM].
The same measure for `NC1(C(=O)O)CCCC1`: inactive: 15.5%.
Consider `O=C(/C=C/c1ccccn1)NCC1Cc2cccc(-c3ncccn3)c2O1` (stereo not given), for which the “activity change, negative = inhibition” value was inactive: 18.1%.
Next, `CO[C@H]1[C@H](NC(=O)c2ccsc2)c2ccccc2C12CCN(Cc1cnn(C)c1C)CC2`: inactive: -14.7%.
